In patent publication US11932637B2, “Chromane amidine monobactam compounds for the treatment of bacterial infections” (priority 2021, dated 2024):
At least one read-out could not be matched to a standard name with certainty.

How the values were obtained:
[1] = system: Escherichia coli expressing NDM-1 (CLB30016); assay: Antibiotic activity: growth inhibitory concentration (OD600), E. coli CLB30016; format: cell-based; conditions: concentration inhibiting 95% of bacterial growth, with BLi Relebactam 4 μg/mL, 22 hours
Method: (§1) Biological Assays Antibiotic Activity: Determination of Growth Inhibitory Concentration The concentrations of compounds required to inhibit the growth of various strains of bacteria were determined in an assay that assessed bacterial growth by measuring optical density at 600 nm (OD600). The bacterial strains tested included the clinical strains Escherichia coli expressing NDM-1 (CLB30016), Klebsiella pneumoniae expressing KPC-1 (CL6569), Acinetobacter baumannii expressing TEM-1, AmpC, and Oxa-24/40 (CL6188) and Pseudomonas aeruginosa expressing AmpC (CL5701). All compounds were tested in the presence of a β lactamase inhibitor (BLi, Relebactam) in 384-well microplates.
(§2) The clinical strains were stored as frozen single use stocks, thawed and diluted into 1.1× cation-adjusted Mueller-Hinton II broth to achieve approximately 2×10^5 CFU/mL. Test compounds were dissolved in DMSO and diluted 1:50 in the assay, resulting in a final concentration range of 100 μM to 0.098 μM. On the day of the assay, 1 μL of test compound was added to the plate followed by 4 μL of 50 μg/mL BLi in MOPS buffer and 45 μL of diluted bacteria. Plates were centrifuged at 1000 rpm for 30 seconds, shaken at approximately 800 rpm for 1 minute, and incubated at 35 t 2° C. for 22 hours. The concentration of BLi used in the assay was 4 μg/mL. At the end of the incubation, absorbance at 600 nm was determined using a spectrophotometer. Inhibition was quantitated by identifying the lowest concentration of test compound that was required to inhibit 95% of the growth of the bacteria.

[2] = system: Pseudomonas aeruginosa expressing AmpC (CL5701); assay: Antibiotic activity: growth inhibitory concentration (OD600), P. aeruginosa CL5701; format: cell-based; conditions: concentration inhibiting 95% of bacterial growth, with BLi Relebactam 4 μg/mL, 22 hours
Method: as §1, §2

With `CC1(C)[C@H](NC(=O)/C(=N\O[C@](C)(C(=O)O)[C@H]2CCc3cc(C(=N)NC4CCC(N)(CO)CC4)ccc3O2)c2csc(N)n2)C(=O)N1OS(=O)(=O)O` (stereo partly drawn) [Compound 69, (S)-2-((R)-6-(N-((1r,4R)-4-amino-4-(hydroxymethyl)cyclohexyl)carbamimidoyl)chroman-2-yl)-2-((((Z)-1-(2-aminothiazol-4-yl)-2-(((S)-2,2-dimethyl-4-oxo-1-(sulfooxy)azetidin-3-yl)amino)-2-oxoethylidene)amino)oxy)propanoic acid] the “EC_CLB30016 MITC95” value [1] was 6.25 µM and the “PA_CL5701 MITC95” value [2] was 1.563 µM.
For `CC1(C)[C@H](NC(=O)/C(=N\O[C@](C)(C(=O)O)[C@H]2CCc3cc(C(=N)NC4CCC(N)(CO)CC4)ccc3O2)c2csc(N)n2)C(=O)N1OS(=O)(=O)O` (stereo partly drawn) [Compound 70, (S)-2-((R)-6-(N-((1s,4S)-4-amino-4-(hydroxymethyl)cyclohexyl)carbamimidoyl)chroman-2-yl)-2-((((Z)-1-(2-aminothiazol-4-yl)-2-(((S)-2,2-dimethyl-4-oxo-1-(sulfooxy)azetidin-3-yl)amino)-2-oxoethylidene)amino)oxy)propanoic acid], the “EC_CLB30016 MITC95” value [1] was 6.25 µM and the “PA_CL5701 MITC95” value [2] was 1.563 µM.
For `CC1(C)[C@H](NC(=O)/C(=N\O[C@](C)(C(=O)O)[C@H]2CCc3cc(C(=N)N[C@]4(C)CC[C@@H](N)CC4)ccc3O2)c2csc(N)n2)C(=O)N1OS(=O)(=O)O` [Compound 71, (S)-2-((R)-6-(N-((1r,4R)-4-amino-1-methylcyclohexyl)carbamimidoyl)chroman-2-yl)-2-((((Z)-1-(2-aminothiazol-4-yl)-2-(((S)-2,2-dimethyl-4-oxo-1-(sulfooxy)azetidin-3-yl)amino)-2-oxoethylidene)amino)oxy)propanoic acid], the “EC_CLB30016 MITC95” value [1] was 9.375 µM and the “PA_CL5701 MITC95” value [2] was 1.563 µM.
With `CC1(C)[C@H](NC(=O)/C(=N\O[C@](C)(C(=O)O)[C@H]2CCc3cc(C(=N)N[C@H]4C[C@](CN)(CO)C4)ccc3O2)c2csc(N)n2)C(=O)N1OS(=O)(=O)O` [Compound 78, (S)-2-((R)-6-(N-((1r,3R)-3-(aminomethyl)-3-(hydroxymethyl)cyclobutyl)carbamimidoyl)chroman-2-yl)-2-((((Z)-1-(2-aminothiazol-4-yl)-2-(((S)-2,2-dimethyl-4-oxo-1-(sulfooxy)azetidin-3-yl)amino)-2-oxoethylidene)amino)oxy)propanoic acid] the “EC_CLB30016 MITC95” value [1] was 6.25 µM and the “PA_CL5701 MITC95” value [2] was 1.563 µM.
`CC1(C)[C@H](NC(=O)/C(=N\O[C@](C)(C(=O)O)[C@H]2CCc3cc(C(=N)N[C@H]4C[C@@](N)(C(O)CO)C4)ccc3O2)c2csc(N)n2)C(=O)N1OS(=O)(=O)O` (stereo partly drawn) [Compound 99, (S)-2-((R)-6-(N-((1R,3R)-3-amino-3-((R)-1,2-dihydroxyethyl)cyclobutyl)carbamimidoyl)chroman-2-yl)-2-((((Z)-1-(2-aminothiazol-4-yl)-2-(((S)-2,2-dimethyl-4-oxo-1-(sulfooxy)azetidin-3-yl)amino)-2-oxoethylidene)amino)oxy)propanoic acid] was tested, and the “EC_CLB30016 MITC95” value [1] was 6.25 µM and the “PA_CL5701 MITC95” value [2] was 3.125 µM.
For `CC1(C)[C@H](NC(=O)/C(=N\O[C@](C)(C(=O)O)[C@H]2CCc3cc(C(=N)N[C@H]4C[C@H]5CC[C@@H](C4)N5)ccc3O2)c2csc(N)n2)C(=O)N1OS(=O)(=O)O` [Compound 136, (S)-2-((R)-6-(N-((1R,3r,5S)-8-azabicyclo[3.2.1]octan-3-yl)carbamimidoyl)chroman-2-yl)-2-((((Z)-1-(2-aminothiazol-4-yl)-2-(((S)-2,2-dimethyl-4-oxo-1-(sulfooxy)azetidin-3-yl)amino)-2-oxoethylidene)amino)oxy)propanoic acid], the “EC_CLB30016 MITC95” value [1] was 6.25 µM and the “PA_CL5701 MITC95” value [2] was 1.563 µM.
